Experimental data published in PMC10726135.
Some of the results follow. At the low end of the ranking the order means little. The protein was read in a cell extract, so binding may be indirect.

Target: T1, HNF4alpha2 (COS-7 nuclear extract) (UniProt P41235)
T1 sequence: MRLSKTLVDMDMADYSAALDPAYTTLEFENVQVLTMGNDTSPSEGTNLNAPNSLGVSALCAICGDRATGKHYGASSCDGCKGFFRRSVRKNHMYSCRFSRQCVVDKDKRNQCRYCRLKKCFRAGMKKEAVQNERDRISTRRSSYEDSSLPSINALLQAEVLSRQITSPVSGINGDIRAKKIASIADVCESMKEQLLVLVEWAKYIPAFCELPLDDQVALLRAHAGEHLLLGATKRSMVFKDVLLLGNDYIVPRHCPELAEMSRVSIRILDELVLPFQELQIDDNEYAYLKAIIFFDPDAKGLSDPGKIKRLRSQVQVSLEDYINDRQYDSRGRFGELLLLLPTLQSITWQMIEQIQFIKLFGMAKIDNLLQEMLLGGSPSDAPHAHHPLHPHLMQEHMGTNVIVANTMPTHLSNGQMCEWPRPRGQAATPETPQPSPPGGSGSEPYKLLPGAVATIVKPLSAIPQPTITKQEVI
Test: protein-binding microarray
Settings: COS-7 nuclear extract on double-stranded Agilent 4x180k PBM; binding buffer, salt, pH and temperature not given; high values mean tight binding; double strand, one strand shown; sequences stand for … in …GCCTAGGGAGATTAGAGTATCGGTCGA

| Sequence | binding signal (log2 normalized intensity) |
| --- | --- |
| AGAGCAGCTAGTAGGAGCGGGCTTAACTAG | -0.97 |
| CCTTTGAGGAGGCCTTTCCTGACCCCTCCT | 4.34 |
| GGCACAGGTCAAAAATGATGCCTGACTCAA | -1.06 |
| CATCATCTGTTTGTACGCGTCGAACTAGCT | -0.65 |
| CTTAGAGATAATGGGGGAGCCACTGCAGCT | -1.22 |
| AGGGTCTGGTTCCAAAGTCTGCAGATTAAA | 1.61 |
| GTCCCTGGGGACAGGGATTAAGTACCGCTC | -1.17 |
| AAATACATTCTGAACCAATGCCACAGAAAA | -1.14 |
| ATCTCTGTCCCTGATACCATTATCTCCAGC | -0.687 |
| TGACATCCCTATGTTGTCCCTGCCCTTTGT | 3.86 |
| AGAGAAATGAGGCACAGTAACCTGACCCCC | 5.46 |
| AAGGTAAATATTGTCAGTGAGGAATGTGCA | 0.722 |
| GGGCGCTGTCCGCCGCCTCGTGGTGCTGAT | -1.1 |
| CGCTGTAGAAAGTGGTTTCAAGGTGACCCC | 5.64 |
| TTAAAGGATATCATCAGTGCCATTCATTAG | -1 |
| AAGGTCAGGGGCAGGGTCGCGCGGGCTGCT | -1.09 |
| CTTCCAGAAATGCCAAGATCAGGGCTAAGA | -1.09 |
| CTCTTATCTGAATGTATGGGCTATTTATGA | 1.27 |
| CTTACTTTTATCAGGTAAAGATATGGAACA | 1.6 |
| GGTTTTCTTGCAAACATTACTGGCACACAG | 0.444 |
| ATCTCTGTGGGAGGGAAGGAGCCTAACTTT | -1.17 |
| CCTAACTTGTGGCTGGGTGATCTGGGAAAC | -0.353 |
| GAGGTCACAACAGAAAGCAAGAGCACAAGA | -1.09 |
| CTTTTTAGGAAACATTTCCATTGAAGCAGA | -1.15 |
| TCAAATATGTCTCTCCTATTCAGGTATTTG | 2.03 |

| Sequence | binding signal (log2 normalized intensity) |
| --- | --- |
| CTCCCTTGCACCAGTTTCTCAACAGACCCC | 3.04 |
| GCACAGTGCCTGGCATGTGATAGGCATGCA | 0.972 |
| CTGCACAGCATAGAAAACAAGTTAGACAGT | -1.1 |
| CTAGGAGACAACTTAGAATTTCATTTTGCT | -1.11 |
| CATTGTTGGGATAAAATTCAACAGAGCTAT | -1.21 |
| CCACTTACCACCCACAGAGGGGGTTTGTTT | -0.547 |
| TCTCTACGACTTGCTTATCTTACGCAACTG | -0.407 |
| AGAAAACACAGAGATCTGATCAAAGGTCAT | 5.9 |
| GGTGAAGGGGTCACCTCGCTCCCCTCCTGT | 1.11 |
| TAGGGAAAATAGTGACCCTGTCTCTCAGTC | 0.859 |
| CTCACCTGGATGTTTTGATGAACTTTCAAG | 2.09 |
| CATACTTCTTCCTGTTTGACCTTCGAACCC | 9.59 |
| GCACACTCGCCTGGCTCCCCACGTGGCAAT | -1.14 |
| CTCCACCTGGAGGGACTTTGTCCCACAGGA | 3.51 |
| TCCAAGATCCAACTCTGAAGATTCACAGGT | -1.09 |
| CGCCGCGGGCGCCCTGGTCTCTGCTACCTG | -1.15 |
| GTGACCTTTGCTCCAGTTCCCAATAAGTTG | 4.19 |
| TGGCCCAAGGCCTCTGACATAAATCACATT | -0.63 |
| ACAAGCAACCCTCCTCCCTTTGGCCATGAA | 1.54 |
| GATGCCATTCCCTGCAGGTGAAACTCCAGG | -1.02 |
| TTGTGCTAGAAAGAATGAGAAGGGCTAATA | -1.13 |
| GCCCCTGGCTGGGCCCTGACCTCAAGTGAC | 1.91 |
| GCTACAACTGGACTAGACAGGCTTGTCGAG | -1.17 |
| GGAAATGAATTGATAAACACTTGCCTACTT | -1.14 |
| CCACAGCGTTTTCCTCCAGCCTGTCGGAAT | -0.971 |

| Sequence | binding signal (log2 normalized intensity) |
| --- | --- |
| TTGATCCAGGATCCTTCTTGACCAGGCAAG | -0.434 |
| TCTTGTAAGGTTCTTGTATCTGATCTGTGT | 2.4 |
| CATCTCAAAGGCATTTTTTGTAGATGCCTG | 0.801 |
| GGGGGTTTGCAACCTTTGATAACCTACAAC | 1.03 |
| GAAACCTAGGAGTTATCTAAGACCCATCCC | 1.29 |
| TACGAAGGGTTTAAAGGGCAGAAGAAGGGA | 0.686 |
| CAAACATTAGCTGCAGATTCCACCTTAGAG | -0.782 |
| GTATCTGACTTTATCATTGGACTCTCTCAT | 3.01 |
| AGCCAGGCAGTCGGGAAATTCCAGCAGGAA | -1.23 |
| ACTGACTGCTTTATCAGTGTAGTTTGAAGC | 1.58 |
| AGGTTCCATGGTGTAATGGTTAGCACTCTG | 0.735 |
| ATGTATGCATAGACTGCCCAGAATTTCCTG | -1.05 |
| GGTCTAAGGGCAAGTGACTGATAAGGCTAA | -1.06 |
| ATAACCTACTTAAAAAGAAATAGCCTGAAA | -1.07 |
| CAATATCGCAGTCATAAATACTCATTATGT | 0.167 |
| TCTGTTGTGTCAAAGGTCACTTAGTCCCTA | 4.39 |
| TACGCAAGTGGTACCTCCCGAAAGTGACCC | 4.42 |
| GAATTAACTAAAAGTATCTAAGGGCCTAGA | -1.1 |
| CTCAAGCTCTCCTCTTATCAGGCAGGATAT | 0.862 |
| ATGGTGCTGGCGGGAGCATAGCAGCGAGGA | -1.07 |
| CCTAGGGGGAAGCCCCTGCTTCCGGACACA | -1.12 |
| TGGGGTATGTGCTCACTCCTGGGACAAGGA | -1.11 |
| GGGCTTCCAGGCTTGGAGCCCCTTTGGAGG | -1 |
| AGCAATAGGAAATGGGAGGGTAAATTCCTT | -0.838 |
| GCTTGAAAAGTCTTTCTGCCAAAGTTCAGC | 2.04 |

| Sequence | binding signal (log2 normalized intensity) |
| --- | --- |
| GAGCCTGCACGCCTGTTCACATTCCAGTGT | -0.595 |
| GAAACGGGATTTCTTTATATTATGCTAGAC | 0.0814 |
| TCGCAGACTTTGGACTCTGCAAGGAAGGTG | 4.93 |
| GAGGTTTTCATCCCAGGGCTGGGGAAACAA | -0.87 |
| AAAGGGTCTTAGTATTAACGGTGAGGGAGG | -0.973 |
| GGTCTGCAATCTAAGTCTGGCTCCTGAAAC | -1.25 |
| ACACTCCTTGTTCTCAGAGATCAAAGGTGA | 4.36 |
| ACCACATTCTCACCACTAGGAAACTGACCT | 3.23 |
| TCATGTCACGTTGGGGGTGCTGATGTTAAC | 1.49 |
| GCATGGAATGACTTTGGGGAAATGACCTTT | 7.23 |
| CTCTGCCACTGGTTTGCACACACCAAAGCC | -1.02 |
| CTTTCTCCTCCCCTCCCCTCCCCCCACTCA | 6.94 |
| ACTGACCTTTGAGAGTCAACACTGAAATAG | 1.42 |
| GGGATTTGTACAAGTGATTGGATCTGAGAT | 0.237 |
| AGCCTTGCAGATAAGCCACGAGCCTGCCTG | -1.02 |
| CTTATGCTGAATTCCCATCTAAGACTTTAT | -0.47 |
| GCCTCCTCCATCTCCTCCACCAGCTTGCTG | -1.09 |
| GACCCATCCCTCAGGGTCCATATCCAATAA | 2.04 |
| AGGCTTAGGCCAGGCGGAGCACACCAGGCC | -1.23 |
| GGGGCCTAGCTTGTAAAGGGTAATCTGCTT | -1.02 |
| AGCAAACACAAACTATGACCTTTGAAACTT | 7.13 |
| CTCAGCTCCTAAAGGCAGCCCCTTATCAGG | -1.15 |
| ATCTTGCTGTACACTCAGGTCTTTCTGGAG | 1.44 |
| ATTCTTTCTGATAAGAGCATTTTTGTATGC | 1.5 |
| CTCCGCCTCCCTCCCCCTTTCTCCGCTAAG | 3.25 |

| Sequence | binding signal (log2 normalized intensity) |
| --- | --- |
| TAACATTGCTGACCCCCTACATAGAGAGCA | 2.89 |
| ACAAGTGAAAGTCTAAAGTTCAGTGAGATT | 3.35 |
| CTTAGAAAGAGGGTGTAAGAGTGAACTCTG | 2.12 |
| ACTTCTTTGAAGAAGACAAAACAGCGTACT | -0.893 |
| AGAGCTCTGTGCCTTTCTCTGCAGCTTAAA | -1.14 |
| GTGACTGAAGTCCAACCCTCCGTTTCTCTG | 1.42 |
| TTGAGTCTGGTGTTCTCTTGGCCAACAACT | -0.0451 |
| AAGTTCAACCTCATTATCTTCAGTCTAGAA | 0.403 |
| AGTAGATAACTTCAAGGAGCTCGGCGCCAG | -1.01 |
| TGTCTACCCTTTTGCCCTTTGAGCTTCTGT | 5.21 |
| ACCCCTTGCAAATAAGTCCGGCAGAGCTAT | -0.0464 |
| AGTCCAAATTCCTAACTATGGTTGATAAGG | 0.0407 |
| ATTTCTAGGTTTGATCTTTGCCCTACAATT | 5.51 |
| ATCTCGTGTCTTTCATCTCTGTAAACTGGC | 1.84 |
| ACTCAGGTCATCAGGACTCTAACTGGCTTT | -0.721 |
| GACCTCTGCCCTTCCACCCACTTTATCTTC | 3.26 |
| TCCTTTGTTTAGACTTGGGGCCAAAAAATT | 1.62 |
| CCAAGACCAAGCAAGCCAGTCAGAATCTCT | -1.08 |
| GTGAACCTTTGTCCCGTTATGGCACCAAGA | 0.871 |
| TGATGAAACTCCTTCCCTTTCATGTTGAAC | 1.69 |
| CTCATGTGGTCCTAAGACTGACCTTTGATC | 10.1 |
| TAGAAGCTGAGCAGCAATCAGCTCCTCAAC | -1.3 |
| AATCCTCCCACCTCAGCATCCCAAGTAGCT | 1.58 |
| TGCTCGGCATCCCTGCCGTGGCTGGAACTC | -1.08 |
| ACCCCTCCGGCAGCGGCCGGAAAAAGTGAG | 1.79 |

| Sequence | binding signal (log2 normalized intensity) |
| --- | --- |
| CCAAGCCACCTTCCCGGCCTGGCCACTCCG | -1.12 |
| ATAGTTCTCATGGCTCATTTTGGGCATCTG | 1.35 |
| TTAGCTTGGACAGAGTTTGTGGTGTTTGTG | 2.05 |
| TATGCACTCTCACCTTGGGGGCTGCTGGGG | -0.636 |
| TATTGTGAAGTGATAGCTAATGGAAAGCTT | -1.08 |
| TGTATTCATGAGCATGCTTCCCAAATGGAG | -1.13 |
| AAGTACAAAAGAGGCTTCCTGGGCCAGGTC | -1.03 |
| CGCTGTTGATGGGCAGCGCGGCGCGCTGGG | -1 |
| CAAATTTGCCTTGTCCTTAGACAGTAACCC | 0.908 |
| CAGTTTTTGTTTGCACCTCACAGGAAGAAC | 1.15 |
| TGCATAGACTGCCCAGAATTTCCTGTTAGA | -0.238 |
| CCTGCCCATCCCGTGGACTCTGCCTGCCCT | 3.08 |
| CTGAAGGATATTGGCAACGCCTCAGAAGCA | -1.01 |
| AGTTCAACCATACACACATTCCAATCTTCT | -0.221 |
| AAGTTGAATTCTTGACTTTGGACTTTCAAA | 5.18 |
| ATGAGGCCCCAGTGATGACAGCAAGATAAT | -0.755 |
| TCTCTCCCTCCTCCTTTTTTTCCCCTCCCT | 4.61 |
| AAGCAATGCTGGGGACCTTTGGCCTTTACC | 5.13 |
| CACTCAGGCACTGGGATCCAAAGTTCATGG | 3.37 |
| GCCAGTGTGGCTAACAATATGGGGTGGGGA | -1.12 |
